Assay results from PubChem BioAssay AID1346428 (National Center for Advancing Translational Sciences (NCATS), 2018).
In all, about 48,000 compounds went through this assay and about 1,200 (2.5%) were called active. Not shown: some 2% with an inconclusive outcome.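 How the source made its calls: active means activation of at least 60% and not above a set upper limit (about 1 call in 100 departs from these limits); inconclusive means activation of 40% to 60%, or above that upper limit; inactive means activation under 40%.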 Some of the results follow.

biological target: Probable G-protein coupled receptor 32 (Homo sapiens) (UniProt O75388); test: qHTS for Agonists of Human Resolvin D1 Receptor DRV1; settings: CHO-K1 GPR32 beta-arrestin PathHunter luminescence, 90 min; at 76.9 µM; stronger effect = higher value; zero percent set by DMSO-only wells; further: 0% is about no effect
Sequence of UniProt O75388 (O75388 whole entry, looked up, the tested form may be a part): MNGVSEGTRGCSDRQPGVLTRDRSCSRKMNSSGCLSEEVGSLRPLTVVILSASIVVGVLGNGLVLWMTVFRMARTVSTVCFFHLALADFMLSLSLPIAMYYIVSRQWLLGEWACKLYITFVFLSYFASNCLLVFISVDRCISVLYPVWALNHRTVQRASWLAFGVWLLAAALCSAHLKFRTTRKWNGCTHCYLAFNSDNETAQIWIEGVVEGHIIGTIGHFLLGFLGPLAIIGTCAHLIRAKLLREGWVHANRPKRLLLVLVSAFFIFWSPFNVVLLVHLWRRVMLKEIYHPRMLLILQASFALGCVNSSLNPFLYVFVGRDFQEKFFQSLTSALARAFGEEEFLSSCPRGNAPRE
How it was run: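 Agonism was scored as beta-arrestin recruitment to ProLink-fused GPR32 in stably transfected CHO-K1 cells, giving a chemiluminescent beta-Gal signal; compounds were incubated 90 min at 37 °C.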

activation, inactive:
CCOC(=O)c1ccc(NC(=O)CSc2ccc(-c3ccccn3)nn2)cc1 10.9%
CCN(CC)c1cc(C)c2cc(NC(=O)c3ccccc3Cl)ccc2n1 44.7%
Cc1ccc(-c2nc3c(c(SCC(=O)N(C)c4ccccc4)n2)Cc2c(CO)cnc(C)c2O3)cc1 25%
O=C(Nc1cccc(OCc2cc(=O)n3ccccc3n2)c1)c1ccccc1Br -8.24%
CCC1CN(C(=O)NCc2ccccc2)c2cc(Cl)ccc2O1 (stereo not drawn) -17%
Cn1c(=O)n(C)c2cc(N3CCOCC3)c(NC(=O)c3ccc(Cl)cc3)cc21 -17.5%
O=C1C(=O)N(C2CCN(S(=O)(=O)c3ccccc3)CC2)CCN1Cc1ccccc1 19.4%
COc1cccc(N2CCN(C(=O)C3CCCN(S(=O)(=O)c4ccc5c(c4)oc(=O)n5C)C3)CC2)c1 (stereo not drawn) 44.4%
COc1ccccc1CCNC(=O)C(=O)NCC(c1ccco1)S(=O)(=O)c1ccc(F)cc1 (stereo not drawn) -12.3%
COc1ccc(OC)c(CCNC(=O)c2cc3cccc4c3n2CC(C)S4)c1 (stereo not drawn) -27.1%
Cn1c(=O)c2c(nc(CN3CCN(c4ccccc4F)CC3)n2Cc2ccccc2F)n(C)c1=O -4.03%
Cn1c2ccccc2c2c(C(=O)N3CCN(c4cccc(Cl)c4)CC3)cn(C3CCCCC3)c(=O)c21 -18.6%
O=C(NCc1ccc2c(c1)CCN2C(=O)c1ccncc1)c1ccccc1Cl -8.68%
CCSc1ncc(Cl)c(C(=O)Nc2ccc(S(=O)(=O)Nc3ncccn3)cc2)n1 10.6%
COc1cccc(CNC(=O)CCCn2ncn3c(cc4occc43)c2=O)c1OC -4.98%
COC(=O)CN1C(=O)CSc2ccc(S(=O)(=O)Nc3cccc(C)c3)cc21 -0.571%
CCCOC(C(=O)OC1CCN(C)CC1)(c1ccccc1)c1ccccc1 -9.18%
Cc1cccc(C(=O)Nc2nc3nc(-c4ccccc4)cc(=O)n3[nH]2)c1 20.3%
COc1ccc(-n2c(=O)c3c4c(sc3n(Cc3ccc(C)cc3C)c2=O)CCC4)c(OC)c1 -12%
CCc1nc2ccccc2n2c(-c3ccccc3)c3c(=O)n(C)c(=O)n(C)c3c12 -9.49%
CCc1c(C)nc2nncn2c1Nc1ccc(Cl)cc1 0.535%
CCOc1ccccc1NS(=O)(=O)c1ccc2c(c1)CC(C)N2C(=O)C1CC1 (stereo not drawn) 16.1%
COc1ccc(OC)c(CNC(=O)Cn2ncc3c([nH]c4ccc(C)cc43)c2=O)c1 -10.6%
